Measurements as given in article PMC4336329 (PLoS ONE, 2015).
Screen size: about 310,000 compounds; about 14,000 (4.5%) showed an effect of 50% or more. Effects have a minus sign here. The list shows a part of the results. Where a SMILES comes first, the peptide text is derived from it. [ ]: non-standard residue; d: D form. The star is where a group is joined. ξ: configuration not given here. Cbz = O=C(OCc1ccccc1)*; ξP = O=C(O)C1CCCN1

Biological target: human ether-à-go-go-related gene (hERG) potassium channel (human, UniProt Q12809)
Sequence (Q12809 whole entry, looked up): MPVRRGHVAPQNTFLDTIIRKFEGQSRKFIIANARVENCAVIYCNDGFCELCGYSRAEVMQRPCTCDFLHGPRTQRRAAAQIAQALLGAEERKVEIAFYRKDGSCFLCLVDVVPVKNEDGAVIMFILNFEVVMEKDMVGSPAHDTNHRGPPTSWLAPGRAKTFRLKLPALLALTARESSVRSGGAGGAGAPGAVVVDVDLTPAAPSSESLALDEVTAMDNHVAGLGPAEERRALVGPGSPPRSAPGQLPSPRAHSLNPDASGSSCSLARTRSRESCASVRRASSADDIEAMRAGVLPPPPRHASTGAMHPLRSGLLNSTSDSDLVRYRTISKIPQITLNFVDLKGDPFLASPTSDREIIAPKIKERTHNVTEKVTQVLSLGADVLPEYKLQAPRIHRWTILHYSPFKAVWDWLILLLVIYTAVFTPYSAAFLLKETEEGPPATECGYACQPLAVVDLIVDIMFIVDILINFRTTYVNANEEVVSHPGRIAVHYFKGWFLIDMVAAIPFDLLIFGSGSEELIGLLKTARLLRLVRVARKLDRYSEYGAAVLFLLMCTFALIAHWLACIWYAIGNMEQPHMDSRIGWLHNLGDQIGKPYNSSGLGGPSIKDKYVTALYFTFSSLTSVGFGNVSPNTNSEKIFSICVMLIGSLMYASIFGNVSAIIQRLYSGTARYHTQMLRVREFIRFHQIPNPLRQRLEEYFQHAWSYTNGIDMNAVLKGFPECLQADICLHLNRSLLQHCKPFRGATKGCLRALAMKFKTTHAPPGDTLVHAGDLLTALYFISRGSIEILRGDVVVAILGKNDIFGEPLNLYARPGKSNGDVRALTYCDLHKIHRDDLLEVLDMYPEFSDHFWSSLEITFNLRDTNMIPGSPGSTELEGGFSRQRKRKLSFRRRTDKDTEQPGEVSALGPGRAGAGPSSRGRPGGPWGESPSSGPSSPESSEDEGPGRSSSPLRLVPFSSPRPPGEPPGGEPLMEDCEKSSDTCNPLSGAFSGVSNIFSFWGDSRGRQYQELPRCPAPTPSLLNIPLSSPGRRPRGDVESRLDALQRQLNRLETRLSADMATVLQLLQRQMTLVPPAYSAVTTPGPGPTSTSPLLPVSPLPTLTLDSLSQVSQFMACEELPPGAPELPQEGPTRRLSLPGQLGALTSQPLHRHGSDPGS
Experiment: primary screen, population patch clamp on CHO cells stably expressing hERG
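Further: peak tail current of the secondary pulse compared with the same well before compound.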

Compound	hERG current change (%, negative = inhibition) at 10uM
O=C(C1COc2ccccc2O1)N1CCN(c2ccc(F)cc2)CC1 (stereo not drawn)	-40.7%
Cc1cc2cc(CNC(=O)c3ccc(S(=O)(=O)N(C)C)cc3)ccc2n1C	4.48%
CC(C)C(=O)Nc1nc2cc3c(cc2s1)OCO3	-10.4%
COc1cccc(NC(=O)NCCN2CCCCC2)c1	-13.7%
CC(C)CCNc1nc2c(c(=O)[nH]c(=O)n2C)n1CC(O)COC(C)C (stereo not drawn)	-7.08%
CC(C)CC(=O)OCc1cn(-c2ccccc2)nn1	-11.1%
Cc1cc(C)c[n+](CC(=O)c2c(C)cc(C)c([N+](=O)[O-])c2C)c1.[Br-]	-68.6%
COc1cc2[nH]c(=O)n(CCC(=O)N3CCN(c4cc(Cl)ccc4C)CC3)c(=O)c2cc1OC	0.821%
O=C(O)CCCN=C1NC2(CCCC2)Cc2ccccc21	-39.6%
CC1CCC(NC(=O)CCN2C(=O)C3C4C=CC(C4)C3C2=O)CC1 (stereo not drawn)	5.98%
CCNC(=S)NS(=O)(=O)c1ccc(F)cc1	17.3%
Cn1ccnc1SCCNC(=O)CCc1nnc(CCc2ccccc2)o1	-10.2%
O=C(CN1CCN(S(=O)(=O)c2cc(Cl)ccc2Cl)CC1)Nc1ccc2c(c1)OCCO2	-23.2%
COC(=O)c1cnn(-c2nc(-c3ccccc3)cs2)c1N	12.7%
Cc1nc(N2CCCCC2)c2sc(=S)n(C)c2n1	0.582%
CCOC(=O)C1CCCN(C(=O)c2ccc(CS(=O)(=O)c3ccc(C)cc3)o2)C1 (stereo not drawn)	-20.4%
Fc1cccc(F)c1/C=C/c1ccc2ccccc2n1	-7.93%
CCCc1cc2c(cc1NC(=O)c1ccc(Br)cc1)OCO2	-4.12%
Cc1cc(C)c(NC(=O)CSc2nc3c(c(=O)n2C)SC(C)C3)c(C)c1 (stereo not drawn)	6.58%
O=C(CN1C(=O)COc2ccccc21)NCCCN1CCc2ccccc2C1	-32%
COc1ccc(C(=O)C2CCCN(C(=O)CCC3=NNC(=O)CC3)C2)c(C)c1 (stereo not drawn)	-4.27%
COc1ccccc1-n1c(N)cc(=O)nc1SCC(=O)Nc1cc(C)on1	7.39%
CCc1c(C)nc2ncnn2c1N1CCC(C(=O)Nc2ccccc2)CC1	-44.4%

Compound	hERG current change (%, negative = inhibition) at 10uM
Fc1ccc(-c2n[nH]c(=S)n2Cc2ccccc2)cc1	7.48%
COc1ccc(Nc2ncnc3c2oc2ccccc23)cc1	-6.03%
O=C(CCCCCNC(=O)c1ccccc1)N/N=C/c1ccco1	1.16%
O=C(c1ccc(S(=O)(=O)N2CCCCC2)cc1)N(c1ccccn1)C1CCCCC1	-5%
COc1ccccc1CCNC(C)CCc1ccc(O)cc1 (stereo not drawn)	-52.5%
CC(=O)Nc1ccc(OCc2cccc([N+](=O)[O-])c2)cc1	8.84%
CCOC(=O)c1cnc2ccc(C)cc2c1Sc1ccccc1	-4.19%
Cc1cnc(CNC(=O)c2ccc3oc(Cc4ccc(Cl)cc4)nc3c2)cn1	-15.7%
Cc1onc(C(=O)NCc2cccs2)c1[N+](=O)[O-]	9.7%
Cn1c(=O)c2c(ncn2CC(=O)Nc2nnc(Cc3ccccc3)s2)n(C)c1=O	10.6%
O=C1c2cnc3ncnn3c2CC2c3ccccc3CCN12 (stereo not drawn)	-29.6%
Cc1ccc([N+](=O)[O-])cc1N=C(c1cccc([N+](=O)[O-])c1)N1CCOCC1	-26%
CC1CN(C(=O)CCC(=O)NC2CCCCC2)c2ccccc2S1 (stereo not drawn)	-19.5%
CC(=O)Nc1ccc(/C(C)=N\NC(=O)c2ccc(-c3ccccc3)cc2)cc1	-6.21%
O=C(CN1C(=O)CSC1=O)Nc1ccc2c(c1)OCCO2	3.94%
CC(C(=O)NC1CCCCC1)N1CCN(C)CC1.O=C(O)C(=O)O (stereo not drawn)	5.15%
CCN(CC(=O)Nc1cc(Cl)ccc1C)C(=O)c1ccc2c(=O)n3c(nc2c1)CCC3	5.23%
Cc1cccc(C(=O)NCC(=O)OCC(=O)N2CCc3ccccc32)c1	-14.4%
COc1ccc(C(=O)NNC(=O)c2cc3cc(OC)ccc3oc2=O)cc1	1.79%
Cc1nc2cc(NCc3nc4ccccc4n3Cc3ccccc3)ccc2n1C	-82%
Cc1cccc(NC(=S)NCc2ccccc2)c1C	6.87%
Cc1noc(C)c1COC(=O)C1COc2ccccc2O1 (stereo not drawn)	15.2%
CC(Sc1ccccc1)C(=O)N1CCN(S(=O)(=O)c2ccc(Cl)cc2)CC1 (stereo not drawn)	-17.8%

Compound	hERG current change (%, negative = inhibition) at 10uM
CC(C)(C)c1nnc(NC(=S)Nc2ccccc2)s1	10.5%
Cc1c(C(=O)NCC2CCCO2)oc2ccc(S(=O)(=O)N3CC(C)CC(C)C3)cc12 (stereo not drawn)	6.02%
Cn1cccc1CC(=O)N/N=C/C=C/c1ccccc1	5.92%
COc1ccc(C(C)C)cc1S(=O)(=O)N1CC(C)OC(C)C1 (stereo not drawn)	1.99%
C/C=C(\C)CN1CCCC(N(C)CCc2ccc(OC)c(OC)c2)C1 (stereo not drawn)	-27.5%
CCC1CCCCN1CCCNC(=O)CN1C(=O)CSc2ccc(S(=O)(=O)N3CCOCC3)cc21 (stereo not drawn)	17.6%
O=C(N/N=C/c1ccc(Br)o1)c1cc([N+](=O)[O-])cc([N+](=O)[O-])c1	-1.54%
Cc1cc2nc(-c3cccc(NC(=O)c4ccc(Br)o4)c3)oc2cc1C	8.44%
CC1CCN(c2cc(Br)c([N+](=O)[O-])cc2F)CC1	1.84%
CCc1sc(C(=O)Nc2ccc(F)cc2C)cc1C	6.14%
CCOC(=O)CNc1nc(Cl)nc(Nc2ccc(C)cc2)n1	5.46%
O=C(CC(c1ccccc1)c1ccccc1O)N1CCCCC1 (stereo not drawn)	-3.29%
O=C(O)CSCC(=O)Nc1ccc(C(=O)O)cc1	12.5%
C=CCn1c(SCC(=O)Nc2ccc3c(c2)OCCO3)nnc1-c1ccco1	-63.3%
CCN(CC)CCCNc1cc(C(F)(F)F)c(C#N)c2nc3ccccc3n12	-18.4%
COc1cc(/C=C2\SC(=S)N(N(C)c3ccccc3)C2=O)ccc1O	3.66%
COc1ccc(/C=C(\NC(=O)c2ccccc2)C(=O)NCCC(=O)O)cc1	26.3%
CCn1c(C)c(C(=O)c2ccccc2)c(C#N)c1C(=O)O	-0.677%
CCOc1cc(N2CCOCC2)c(OCC)cc1NC(=O)CSc1cccc[n+]1[O-]	16.4%
COc1ccc(N2CCN(Cc3ccc(Br)s3)CC2)cc1	-14.8%
O=C(c1cccc(N2C(=O)C3C4C=CC(C4)C3C2=O)c1)N1CCN(c2ccc(F)cc2)CC1 (stereo not drawn)	-18.3%
C#C[C@]1(O)CC[C@H]2[C@@H]3CCC4=CC(=O)CC[C@@H]4[C@H]3CC[C@@]21CC	6.58%
CCOC(=O)C1CCN(Cc2c(O)c3ccccc3oc2=O)CC1	3.37%

Compound	hERG current change (%, negative = inhibition) at 10uM
Cl.c1ccc2c(NCC3CCCO3)nc(N3CCCCC3)nc2c1 (stereo not drawn)	-72.9%
COc1cccc(NC(=O)C2CCN(Cc3cnn(-c4ccccc4)c3-n3cccc3)CC2)c1	-45.5%
CCOC(=O)C(NC(C)=O)C(OC(C)=O)c1cccc([N+](=O)[O-])c1 (stereo not drawn)	-4.49%
c1ccc(-c2cc3c(N4CCN(c5ncccn5)CC4)ncnc3s2)cc1	22%
COC(=O)CNC(=O)C1CCCN1C(=O)CNC(=O)OCc1ccccc1 (stereo not drawn) (Cbz-Gly-[ξP]-Gly-OMe)	20.8%
CCc1ccc(N(CC(=O)NC)S(C)(=O)=O)cc1	9.89%
Cl.O=C(c1coc2ccc(O)c(CN3CCOCC3)c12)C1CC1	12.3%
O=C(CCN1C(=O)C2CCCCC2C1=O)Nc1nc(-c2ccc(F)c(F)c2)cs1 (stereo not drawn)	-24.4%
COCCOC(=O)C1=C(C)Nc2ncnn2C1c1ccc(F)cc1 (stereo not drawn)	-2.01%
Cn1ccc(NC(=O)Nc2ccc(Cl)cc2)n1	17.4%
O=C(NCCCN1CCOCC1)c1ccc(S(=O)(=O)N2CCOCC2)cc1	-12.3%
CN(c1ccc(OCC(=O)N2CCCC2)cc1)S(=O)(=O)c1ccc(Cl)cc1	-42%
CCc1ccc(OCC2Cn3c(nc4c3c(=O)[nH]c(=O)n4C)O2)cc1 (stereo not drawn)	4.83%
CC(=O)c1c(N2CCN(c3ccccc3)CC2)nc(=S)n(-c2ccccc2)c1C	-20.1%
COc1cc(NC(=S)Nc2ncccc2C)cc(OC)c1OC	15.5%
CCc1cc2c(CN3CCN(C)CC3)cc(=O)oc2cc1O	20.1%
O=C1C=C(c2ccc(F)cc2OCc2ccccc2)C[C@@H](c2ccc(F)cc2)C1	9.48%
Cc1cccc(NC(=O)COC(=O)c2ccc3c(c2)OCO3)c1C	12.3%
CC(=O)N1CCc2cc(S(=O)(=O)CCC(=O)N(C)Cc3ccco3)ccc21	14.8%
Cc1nn(CCC#N)c2[nH]c(=O)cc(C(F)(F)F)c12	11.6%
O=C(Nc1ncc([N+](=O)[O-])s1)c1cccs1	21.1%
